Hit rate of the full screen: of about 230,000 compounds, about 1,500 (0.65%) were called active. Inconclusive results, whose numbers are uncertain, are shown with a selection of clear calls. Calls follow the shape of the dose curve; as a rule, active = well fitted inhibition curve with a large enough effect; inconclusive = small, poorly fitted or top-dose-only effect; inactive = no such curve, though single readings can be large or run the other way. A potency beside an inconclusive call is a rough fit, not a confirmed value.
Biological target: Lethal(3)malignant brain tumor-like protein 1 (Homo sapiens) (UniProt Q9Y468)
Test: qHTS Assay for the Inhibitors of L3MBTL1; also: nearly all actives have a fitted effect of over 60% in size
Details: AlphaScreen L3MBTL1–H3K9me1 peptide binding; activity, negative = inhibition: at 57.1 µM (top of the series)
Outline: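 L3MBTL1 (50 nM) pre-complexed 30 min with biotinylated H3(1-15)K9me1 peptide (75 nM), then compounds added for 30 min at room temperature; AlphaScreen streptavidin donor/nickel chelate acceptor beads (10 ug/mL final) read after 30 min dark incubation.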
% is scaled to controls: 0 for no effect and ±100 for the full control effect; potency is read from the fitted curve at half-maximal effect; tags tell the direction and shape of the fitted curve.

Chain of UniProt Q9Y468 (Q9Y468 whole entry, looked up): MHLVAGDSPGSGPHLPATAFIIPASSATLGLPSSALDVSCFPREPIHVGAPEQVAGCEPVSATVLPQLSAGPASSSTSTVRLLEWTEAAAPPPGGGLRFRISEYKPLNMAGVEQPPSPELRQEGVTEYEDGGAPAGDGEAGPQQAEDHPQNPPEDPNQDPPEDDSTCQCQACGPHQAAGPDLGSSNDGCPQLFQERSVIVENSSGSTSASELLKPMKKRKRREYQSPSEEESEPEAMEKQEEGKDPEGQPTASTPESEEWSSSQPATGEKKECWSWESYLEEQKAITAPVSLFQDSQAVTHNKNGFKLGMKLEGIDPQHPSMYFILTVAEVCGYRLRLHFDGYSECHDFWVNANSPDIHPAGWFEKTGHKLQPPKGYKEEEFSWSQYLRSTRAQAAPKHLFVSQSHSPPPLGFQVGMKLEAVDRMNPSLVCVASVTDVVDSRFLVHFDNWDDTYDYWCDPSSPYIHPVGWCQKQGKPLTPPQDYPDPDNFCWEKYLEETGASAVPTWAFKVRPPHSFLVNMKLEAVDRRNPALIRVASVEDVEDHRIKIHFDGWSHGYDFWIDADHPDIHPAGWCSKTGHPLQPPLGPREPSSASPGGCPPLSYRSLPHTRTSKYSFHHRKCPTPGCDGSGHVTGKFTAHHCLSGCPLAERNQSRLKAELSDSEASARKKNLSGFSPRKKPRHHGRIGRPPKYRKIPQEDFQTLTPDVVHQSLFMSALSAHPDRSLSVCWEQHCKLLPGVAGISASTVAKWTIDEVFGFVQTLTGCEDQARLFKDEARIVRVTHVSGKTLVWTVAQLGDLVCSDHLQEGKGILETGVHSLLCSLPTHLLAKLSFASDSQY

| Structure (SMILES) | Potency | activity, negative = inhibition |
| --- | --- | --- |
| CN(C(=O)COC(=O)c1cccnc1Cl)C1CCCCC1 | inactive |  |
| O=C(COC(=O)/C=C/c1ccco1)Nc1ccccc1 | inconclusive: 12.6 µM [inhibitor, partial curve] |  |
| Cc1cc([N+](=O)[O-])cc(/C=N/n2c(C)nc3ccccc3c2=O)c1O | inconclusive: 22.4 µM [inhibitor, single point] |  |
| S=C(c1ccc(-c2ccccc2Cl)o1)N1CCCCC1 | inconclusive: 44.7 µM [inhibitor, single point] |  |
| CCc1ccc2c(c1)C(=O)c1ccccc1C2=O | inconclusive: 44.7 µM [inhibitor, single point] |  |
| CSc1ccc(C2c3[nH]c4ccccc4c3CCN2C(=O)c2cc(C)n(C)n2)cc1 (configuration not stated) | inconclusive: 28.2 µM [inhibitor, single point] |  |
| COc1ccc(NC(=O)CSCC(=O)N(C)CC(=O)Nc2ccc(Cl)c(C(F)(F)F)c2)cc1 | inconclusive: 0.794 µM [inhibitor, single point] |  |
| C/C(=N\Nc1ccccn1)c1ccc(N2CCOCC2)cc1 | inconclusive: 39.8 µM [inhibitor, single point] |  |
| Cn1c(-c2cccs2)[n+](C)c2ccccc21 | inconclusive: 25.1 µM [inhibitor, partial curve] |  |
| N#CC1=C(N)SC(N)=C(C#N)C1c1ccc([N+](=O)[O-])cc1 | inactive |  |
| Cc1csc(Nc2ccccc2)[n+]1-c1ccccc1 | inactive |  |
| CCNc1ccc(Br)cc(C(=O)/C=C/c2ccc(Cl)cc2Cl)c1=O | active: 17.8 µM |  |
| COc1ccc(/C(O)=C2\C(=O)C(=O)N(c3cc(C)on3)C2c2cccc(OC)c2OC)cc1C (configuration not stated) | inactive |  |
| COc1ccc(CC(=O)N2CCN(c3ccccn3)CC2)cc1 | inconclusive: 4.47 µM [inhibitor, partial curve, poor fit] |  |
| COc1ccc(/C=C2\CCn3c2nc2cc(C(=O)O)ccc2c3=O)cc1O | inconclusive: 31.6 µM [inhibitor, single point] |  |
| c1ccc(Sc2ncccn2)nc1 | inactive |  |
| S=c1[nH]nc(-c2cccnc2)n1/N=C/C=C/c1ccco1 | active: 22.4 µM |  |
| O=C(NCc1ccco1)C1CC(c2cccc([N+](=O)[O-])c2)=NO1 (configuration not stated) | inconclusive: 4.47 µM [inhibitor, single point] |  |
| CC1=CC(C)(C)N(C(=O)c2ccc(F)cc2)c2cc3c(cc21)OCO3 | inconclusive: 15.8 µM [inhibitor, partial curve] |  |
| O=C1c2ccccc2C(=O)c2c1cccc2N1CCN(Cc2ccccc2)CC1 | active: 14.1 µM |  |
| CC1CCC/C(=N\Nc2ccc(Cl)c(C(=O)O)c2)C1 (configuration not stated) | inconclusive: 35.5 µM [inhibitor, single point] |  |
| O=C(O)/C=C/c1ccc(O)c(O)c1 |  | inconclusive: -96.1% [inhibitor] |
| C=CCc1cc(Cl)ccc1OCCOCCNC(C)(C)C | inactive |  |
| COc1ccccc1NC(=O)CCc1nc2sc3c(c2c(=O)[nH]1)CCCC3 | inconclusive: 39.8 µM [inhibitor, single point] |  |

| Structure (SMILES) | Potency | activity, negative = inhibition |
| --- | --- | --- |
| CN(c1ccccc1)S(=O)(=O)c1cccc(NC(=O)C2=NN(c3ccccc3)C(=O)CC2)c1 | inactive |  |
| O=C(CN1C(=O)NC2(CCCC2)C1=O)N1CCN(S(=O)(=O)c2ccccc2[N+](=O)[O-])CC1 | inactive |  |
| O=C(NCc1ccc(Cl)cc1)c1cnccn1 | inactive |  |
| CCOC(=O)c1nc(C)n(-c2ccc([N+](=O)[O-])cc2)n1 | inconclusive: 0.708 µM [inhibitor, full curve, poor fit] |  |
| CCOC(=O)c1sc2nc3c(SCCC#N)cc(C(=O)c4cc(F)ccc4O)cn3c(=O)c2c1C | inactive |  |
| O=C(CSc1ccccc1)Nc1cccc(S(=O)(=O)N2CCCC2)c1 | inconclusive: 39.8 µM [inhibitor, single point] |  |
| O=c1c(OC2OC(CO)C(O)C(O)C2O)c(-c2ccc(O)c(O)c2)oc2cc(O)cc(O)c12 (configuration not stated) |  | inconclusive: -78.6% [inhibitor] |
| Cc1ccccc1SCC(=O)OCC(=O)Nc1ccc(N(C)C)cc1 | inconclusive: 39.8 µM [inhibitor, single point] |  |
| O=c1[nH]n2c(=O)c3c([nH]c2c1N=Nc1cccc(Cl)c1)CCC3 | active: 3.55 µM |  |
| COCCn1c(-c2ccccc2)csc1=Nc1cccnc1 | inconclusive: 14.1 µM [inhibitor, partial curve] |  |
| CN1/C(=C\C(=S)NC(=O)c2cccc(Br)c2)C(C)(C)c2ccccc21 | inactive |  |
| Cc1ccc(NC(=O)Cn2c(O)c(N=NC(=O)c3cc4ccccc4cc3O)c3ccccc32)cc1 | inactive |  |
| CC1(C)Cc2c(ccc3ccccc23)/C(=C/C(=O)N2CCCCC2)N1 | inactive |  |
| Cc1cc(C)cc(N=Cc2ccc([N+](=O)[O-])s2)c1 | active: 8.91 µM |  |
| Cc1ccc(Nc2nc(N)nc(CN3CCCCCC3)n2)cc1 | inconclusive: 31.6 µM [inhibitor, partial curve] |  |
| Cc1cc(C(=O)N/N=C/c2ccc(O)c(O)c2O)c(C)n1-c1ccccc1 | inconclusive: 11.2 µM [inhibitor, partial curve, poor fit] |  |
| COc1ccc(NC(=S)Nc2ccc(S(=O)(=O)N3CCOCC3)cc2)c(OC)c1 | inactive |  |
| [N-]=[N+]=CC(=O)CC(c1ccccc1)N1C(=O)c2ccccc2C1=O (configuration not stated) | inconclusive: 31.6 µM [inhibitor, single point] |  |
| CCOC(=O)N1CCC(Nc2c(NCCCN3CCN(c4ccc(OC)cc4)CC3)c(=O)c2=O)CC1 | inconclusive: 22.4 µM [inhibitor, partial curve] |  |
| Cc1[nH][nH]c(=O)c1C(c1c(C)[nH][nH]c1=O)c1cn(Cc2ccc(Cl)c(Cl)c2)c2ccccc12 | inconclusive: 39.8 µM [inhibitor, single point] |  |
| Cc1cc(C)c(S(=O)(=O)NCCSCc2ccco2)c(C)c1 | inconclusive: 28.2 µM [inhibitor, single point] |  |
| COc1ccc(/C=C2\SC(=S)N(CCC(=O)Nc3cccc(O)c3)C2=O)cc1 | inactive |  |
| COC(=O)c1ccc(/C=N/NC(=O)CC(=O)NC(C)C)cc1 | inactive |  |

— PubChem BioAssay AID485360 (National Center for Advancing Translational Sciences (NCATS), 2010)
